Source: FireProtDB (doi:10.1126/science.aai7825)

Details: Escherichia coli (strain K12); pH 7.5; Thermal; Intensity; HEPES 20mM; transition: 2

RNA polymerase sigma factor RpoS wild type (sequence left out)
Tm: 44.6 °C
